About 230 (0.21%) of roughly 110,000 compounds showed an effect of 50% or more. The list shows a part of the results.
molecular target: DPAP1 (Plasmodium falciparum, UniProt Q8IIJ9); assay: primary screen, percent inhibition; read by cleavage of a fluorogenic dipeptide substrate; higher = more effect of the substance; parameters: species or system P. falciparum D10 trophozoite lysates; single well
Procedure: HTS was performed in black 384-well plates. The first and last two columns of each plate contained our negative (DMSO) and positive (10 μM JCP410) controls, and the 20 central columns the test compounds at 10 μM. Compounds were first diluted 50-fold into assay buffer (50 mM sodium acetate, 5 mM MgCl2, 10 mM β-mercaptoethanol, and 0.1% CHAPS, pH 5.5) from a 10 mM DMSO stock plates. One microliter of this 200 μM intermediate stock plate was dispensed into the assay plate. […] After 30 min, the reaction was quenched with 20 μL of 0.5 M acetic acid, and the fluorescent intensity measured at 523 nm (λex = 492 nm) using an Analyst HT multimode plate reader (Molecular Devices).
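Further: 30 min substrate incubation versus DMSO and 10 µM JCP410 controls.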

Sequence of DPAP1 (Q8IIJ9 whole entry, looked up): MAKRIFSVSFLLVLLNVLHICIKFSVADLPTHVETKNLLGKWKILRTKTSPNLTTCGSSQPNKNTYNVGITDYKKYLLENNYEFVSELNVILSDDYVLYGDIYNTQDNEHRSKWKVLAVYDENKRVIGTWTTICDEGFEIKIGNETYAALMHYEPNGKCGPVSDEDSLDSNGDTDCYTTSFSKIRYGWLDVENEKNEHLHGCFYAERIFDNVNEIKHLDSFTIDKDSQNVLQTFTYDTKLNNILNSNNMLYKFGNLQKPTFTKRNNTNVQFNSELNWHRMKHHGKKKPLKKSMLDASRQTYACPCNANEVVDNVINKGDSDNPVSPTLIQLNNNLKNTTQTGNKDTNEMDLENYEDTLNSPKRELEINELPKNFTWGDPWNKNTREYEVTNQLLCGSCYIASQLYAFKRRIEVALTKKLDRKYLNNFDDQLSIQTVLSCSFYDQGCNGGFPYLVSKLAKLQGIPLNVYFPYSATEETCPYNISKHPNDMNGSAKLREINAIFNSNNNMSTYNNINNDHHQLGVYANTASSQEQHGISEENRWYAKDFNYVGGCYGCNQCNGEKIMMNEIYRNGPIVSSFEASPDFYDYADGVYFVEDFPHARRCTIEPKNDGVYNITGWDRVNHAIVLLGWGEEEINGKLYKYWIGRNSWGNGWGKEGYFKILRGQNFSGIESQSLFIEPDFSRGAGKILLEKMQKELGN

Point of comparison: `O=C(Nc1sc2c(c1C(=O)NCC1CCCO1)CCCC2)c1ccccc1Br` (stereo not drawn), “% Inhibition @ 10 uM” value 4.57%. Against it:
- c1ccc2c(c1)c(N1CCCC1)nn1nnnc21 — lower, 1.49%
- CSC1=C(C#N)C(c2ccc(Cl)cc2Cl)CC(=O)N1 (stereo not drawn) — lower, -0.436%
- CCn1c(NCc2cc(OC)c(OC)c(OC)c2)nc2ccccc21 — lower, 2.3%
- CC1=CSC2=NC(=O)/C(=C/c3cc(C)n(-c4cccc(C(F)(F)F)c4)c3C)C(=N)N12 — lower, -2.98%
- Cn1c(=O)c2nc(-c3ccc(OCC(=O)NCC4CCCO4)cc3)[nH]c2n(C)c1=O (stereo not drawn) — lower, -5.2%
- COC(=O)c1ccccc1NC(=O)c1ccc(C(C)(C)C)cc1 — lower, 3.72%
- O=C(CCC(=O)N1Cc2ccccc2Oc2ncccc21)NC1CCCC1 — higher, 6.29%
- COc1ccc(CNC(=O)c2nc(CS(=O)(=O)c3ccccc3)no2)cc1OC — lower, -3.07%
- CC1(C)CC(=O)c2cc(OCC(=O)NCc3cccnc3)ccc2O1 — lower, -6.26%
- C=CCN1C(=O)c2ccc(F)cc2C1=O — lower, -2.44%
- CS(=O)(=O)N(CC(=O)NCc1ccccc1Cl)c1cccc(F)c1 — higher, 9.94%
- O=C(O)CSC12CC3CC(CC(C3)C1)C2 — lower, -0.415%
- CCCc1ccc(S(=O)(=O)N2CCN(c3ncccn3)CC2)cc1 — lower, -3.49%
- COc1ccccc1N1CCN(C(=O)c2c(-c3c(F)cccc3Cl)noc2C)CC1 — lower, -5.92%
- CCOCCCNC(=O)c1ccc2snnc2c1 — lower, -5.36%
- O=C(O)c1c(CNCc2ccco2)c2ccccc2n1Cc1ccc(F)cc1Cl — lower, 0.277%
- CC(C)(C)Cc1nc2ccccc2n1Cc1ccccc1 — lower, -4.07%
- COc1ccc(C2C(=O)N(C3CCCCC3)CC(=O)N2C2CC2)cc1OC (stereo not drawn) — lower, -5.8%
- CC(C)c1ccc(CNc2nc(N)n(-c3ccccc3)n2)cc1 — lower, -1.63%
- O=C(NCCc1ccc(Cl)cc1)C1CCC(CNS(=O)(=O)c2cccc3nsnc23)CC1 (stereo not drawn) — lower, -2.25%
- CN(C(=O)c1ccncc1)C1CC(C)(C)N(O)C(C)(C)C1 — lower, -8.85%
- Cc1ccc(CNC(=O)Cc2c(C)c3cc4c(C)coc4c(C)c3oc2=O)cc1 — lower, -4.39%
- Cc1ccc(C(=O)NCCc2ccccc2)cc1 — lower, -0.569%
- O=C(NCCN1CCOCC1)c1ccc(CS(=O)(=O)c2c(Cl)cccc2Cl)o1 — lower, -0.971%
- COc1cc(-c2nnc3sc(-c4ccco4)nn23)cc(OC)c1OC — higher, 6.01%
- Cc1nc(O)c(C#N)c(C)c1CSc1ncccn1 — lower, -1.64%
- O=C1c2ccc(F)cc2C(=O)N1c1nc2ccccc2s1 — lower, -2.42%
- COc1cccc(CNc2cnc3ccccc3c2)c1O — lower, -2.14%
- CCOc1ccc(C2C(C#N)=C(N)N(c3ccc(F)cc3)C3=C2C(=O)CCC3)cc1 (stereo not drawn) — lower, -0.988%
- N#Cc1c(N)n(-c2ccc(Br)cc2)c2nc3ccccc3nc12 — lower, 3.16%
- O=C(COc1cccc(N2C(=O)c3ccccc3C2=O)c1)c1ccccc1 — lower, 2.63%
- O=C1c2ccccc2C(=O)C1(NCc1ccccc1)c1ccccc1 — lower, -0.349%
- COc1cc(C2NC(C(=O)O)CS2)cc(OC)c1OC (stereo not drawn) — lower, -2.45%
- CCC(C)NS(=O)(=O)c1csc(C(N)=O)c1 (stereo not drawn) — higher, 6.59%
- COc1ccccc1-c1nnc2sc(-c3ccccn3)nn12 — lower, -0.45%
- Cc1ccc(S(=O)(=O)c2cc3c(=O)n4ccccc4nc3n(C)c2=N)cc1 — higher, 57.9%
- COC(=O)c1cccc(NC(=O)c2ccccc2C(=O)O)c1 — lower, 0.00784%
- CCOC(=O)c1sc(N2C(=O)c3oc4ccccc4c(=O)c3C2c2ccccc2)nc1C (stereo not drawn) — higher, 4.99%
- CCN(C(=O)N1CCOCC1)c1ccccc1C — higher, 12.9%
- Cc1nn(CCCC(=O)NCC2CCCO2)c(=O)c2cc3sccc3n12 (stereo not drawn) — lower, -1.58%
- CCOc1ccccc1C(=O)Nc1ccc(C)cc1C — lower, 0.0504%
- Cc1cc(NC(=O)c2ccc(COc3ccccc3Cl)o2)no1 — lower, -0.553%
- COc1ccc(-c2cc(C)no2)cc1S(=O)(=O)NCCN1CCc2ccccc2C1 — lower, -1.41%
- CSc1ncc(Cl)c(C(=O)N2CCN(Cc3ccccc3)CC2)n1 — lower, -2.85%
- COc1ccc(C(=O)N/C(=C\c2ccc3c(c2)OCO3)C(=O)Nc2ccc(C(=O)O)cc2)cc1 — lower, -4.76%
- O=C(C(Cc1ccc([N+](=O)[O-])cc1)N1C(=O)c2ccccc2C1=O)N1CCOCC1 (stereo not drawn) — lower, -2.19%
- COc1cc(C2SCC(=O)N2CCc2ccccc2)cc(OC)c1OC (stereo not drawn) — higher, 5.98%
- CCOC(=O)N1CCN(CC(O)COC2CC(C)CCC2C(C)C)CC1 (stereo not drawn) — higher, 12.7%
- COc1ccccc1CNC(=O)CS(=O)Cc1nc(-c2cccc(C)c2)oc1C (stereo not drawn) — lower, -2.85%
- Cc1cccc(C(=O)Nc2sc3c(c2C(=O)N2CCCC2)CCCC3)c1 — higher, 5.03%
